Sequences and labels used below:
B1: CAUGGAU (DNA:RNA)
RNA: GGGAGACCGGAAUUCAGAUUGUCCCAUGGAUUUAAAUCCCGUCGUAGCCACCA
DNA 1: CAATCTGAATTCCGGTCTCCC
DNA 2: TGGTGGCTACGACGGGATT
B2: GCAACGA (DNA:RNA)
RNA: GGGAGACCGGAAUUCAGAUUGUCCGCAACGAUUAAAUCCCGUCGUAGCCACCA
DNA 1: CAATCTGAATTCCGGTCTCCC
DNA 2: TGGTGGCTACGACGGGATT
B3: UUCGGCA (DNA:RNA)
RNA: B1 RNA with C25U, A26U, U27C, A30C, U31A
DNA 1: CAATCTGAATTCCGGTCTCCC
DNA 2: TGGTGGCTACGACGGGATT
B4: UCCAAAC (DNA:RNA)
RNA: B2 RNA with G25U, A27C, C29A, G30A, A31C
DNA 1: CAATCTGAATTCCGGTCTCCC
DNA 2: TGGTGGCTACGACGGGATT
B5: CAAUUCU (DNA:RNA)
RNA: B1 RNA with U27A, G28U, G29U, A30C
DNA 1: CAATCTGAATTCCGGTCTCCC
DNA 2: TGGTGGCTACGACGGGATT
B6: GACCUAC (DNA:RNA)
RNA: B1 RNA with C25G, U27C, G28C, G29U, U31C
DNA 1: CAATCTGAATTCCGGTCTCCC
DNA 2: TGGTGGCTACGACGGGATT
B7: UUACGUA (DNA:RNA)
RNA: B2 RNA with G25U, C26U, A28C, C29G, G30U
DNA 1: CAATCTGAATTCCGGTCTCCC
DNA 2: TGGTGGCTACGACGGGATT
B8: UGUGCUU (DNA:RNA)
RNA: B1 RNA with C25U, A26G, G29C, A30U
DNA 1: CAATCTGAATTCCGGTCTCCC
DNA 2: TGGTGGCTACGACGGGATT
B9: UCGGUCU (DNA:RNA)
RNA: B1 RNA with C25U, A26C, U27G, G29U, A30C
DNA 1: CAATCTGAATTCCGGTCTCCC
DNA 2: TGGTGGCTACGACGGGATT

Numbering of substitutions follows the chain as printed; changes in the protein carry UniProt numbers. The list shows a part of the results.

In the assay the target is T1, RBFOX1 RRM (Homo sapiens, UniProt Q9NWB1 109-208).
T1 sequence: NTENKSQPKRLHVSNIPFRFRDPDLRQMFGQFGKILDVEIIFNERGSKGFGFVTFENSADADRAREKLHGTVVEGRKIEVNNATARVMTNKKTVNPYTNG
Kind of assay: EMSA; HiTS-Eq, 1 nM pool, 10 min; buffer printed only for the single-RNA assays: 10 mM Tris pH 7.5, 150 mM NaCl, 3.4 mM EDTA, 0.001% NP-40, 30 C. To be noted: tags: His6 N-terminal (pET28a); label: 5' 32P. In a few lines: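 Relative association constants, normalised to the cognate motif, were derived by comparing read counts of each RNA species with those of the control reaction. The RNA sequenced was the free fraction, separated by 8% native PAGE after a 10 min equilibration in 50 µL of 1 nM 5′-radiolabelled RNA (7 randomized nucleotides) with increasing concentrations of purified wild-type or mutant RbFox RRM.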
Consider B1, for which the binding signal was 0.00795 KA relative to UGCAUGU.

Consider B2, for which the binding signal was 0.0118 KA relative to UGCAUGU.

In the case of B3, the binding signal was 0.0185 KA relative to UGCAUGU.

Consider B4, for which the binding signal was 0.000218 KA relative to UGCAUGU.

Regarding B5, the binding signal was 0.00154 KA relative to UGCAUGU.

For the molecule B6, the binding signal was 0.00371 KA relative to UGCAUGU.

For the molecule B7, the binding signal is 0.00786 KA relative to UGCAUGU.

For B8, the binding signal is 0.0181 KA relative to UGCAUGU.

For B9, the binding signal is 0.0172 KA relative to UGCAUGU.

For the origin of these results see paper PMC9911399, “Two distinct binding modes provide the RNA-binding protein RbFox with extraordinary sequence specificity”.
